Results from article PMC4336329 (PLoS ONE, 2015).
Among all 310,000 compounds or so, about 2,200 (0.71%) showed an effect of 50% or more. The effect is printed as a negative number. This is one part of the list.

biological target: human ether-à-go-go-related gene (hERG) potassium channel (human, UniProt Q12809); assay: primary screen, population patch clamp on CHO cells stably expressing hERG
Sequence (Q12809 whole entry, looked up): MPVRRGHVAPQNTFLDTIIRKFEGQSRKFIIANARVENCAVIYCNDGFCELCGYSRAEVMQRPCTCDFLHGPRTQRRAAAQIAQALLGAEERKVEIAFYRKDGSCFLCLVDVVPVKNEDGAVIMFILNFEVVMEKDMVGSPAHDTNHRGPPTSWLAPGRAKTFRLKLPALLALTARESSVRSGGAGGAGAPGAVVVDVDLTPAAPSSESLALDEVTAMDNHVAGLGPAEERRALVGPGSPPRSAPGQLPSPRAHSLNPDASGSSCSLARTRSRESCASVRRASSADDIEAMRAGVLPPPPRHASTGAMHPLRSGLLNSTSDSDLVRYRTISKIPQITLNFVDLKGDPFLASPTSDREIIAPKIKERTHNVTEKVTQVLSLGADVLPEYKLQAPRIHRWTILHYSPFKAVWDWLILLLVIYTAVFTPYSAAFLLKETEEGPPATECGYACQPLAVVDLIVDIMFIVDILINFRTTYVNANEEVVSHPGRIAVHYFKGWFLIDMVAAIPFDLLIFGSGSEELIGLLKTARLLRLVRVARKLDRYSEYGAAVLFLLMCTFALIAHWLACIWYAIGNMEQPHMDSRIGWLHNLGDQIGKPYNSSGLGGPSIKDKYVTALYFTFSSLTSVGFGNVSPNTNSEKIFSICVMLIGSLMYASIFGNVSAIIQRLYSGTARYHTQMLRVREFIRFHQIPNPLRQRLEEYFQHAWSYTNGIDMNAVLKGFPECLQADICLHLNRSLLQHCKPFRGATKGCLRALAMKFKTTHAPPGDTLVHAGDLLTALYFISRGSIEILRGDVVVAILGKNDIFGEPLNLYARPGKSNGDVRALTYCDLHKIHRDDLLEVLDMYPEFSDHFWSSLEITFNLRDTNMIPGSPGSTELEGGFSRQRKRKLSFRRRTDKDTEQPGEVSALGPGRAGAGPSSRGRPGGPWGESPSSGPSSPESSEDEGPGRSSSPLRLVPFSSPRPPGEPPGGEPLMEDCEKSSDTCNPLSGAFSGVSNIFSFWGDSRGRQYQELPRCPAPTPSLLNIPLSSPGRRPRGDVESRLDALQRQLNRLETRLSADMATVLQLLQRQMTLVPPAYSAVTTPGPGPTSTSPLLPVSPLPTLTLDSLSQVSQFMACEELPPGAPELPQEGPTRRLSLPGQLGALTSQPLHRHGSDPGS

Going from `O=C(CNC(=O)c1ccccc1O)N/N=C/c1ccccn1` to `Cc1ccccc1OCC(=O)NNC(=O)CCc1ccccc1`, the “hERG current change (%, negative = inhibition) at 1uM” value falls from 4.2% to -2.18%.

Going from `CCCCn1c(N)c(N(CCC)C(=O)C2CCCC2)c(=O)[nH]c1=O` to `CC(C)CN(C(=O)COC(=O)c1cncc(Br)c1)c1c(N)n(Cc2ccccc2)c(=O)[nH]c1=O`, the “hERG current change (%, negative = inhibition) at 1uM” value rises from -2.47% to 20.7%.

Going from `COc1ccc(OC)c(NC(=O)Nc2cc(NC(=O)Nc3cc(OC)ccc3OC)c(C)nc2C)c1` to `COc1cc(C(=O)NCCC(=O)NCc2ccc3c(c2)OCO3)cc(OC)c1OC`, the “hERG current change (%, negative = inhibition) at 1uM” value rises from 10.7% to 11.9%.

Compared with `Cn1c(CC(=O)Nc2ccccc2C(F)(F)F)c(Sc2ccccc2)c2ccccc21`, `O=C(Cn1nc(-c2ccccc2)c2ccccc2c1=O)Nc1ccccn1` is lower in “hERG current change (%, negative = inhibition) at 1uM” value: 11.6% for the first, -1.62% for the second.

Compared with `COc1ccccc1C(C[N+](=O)[O-])c1c(N)n(C)c(=O)n(C)c1=O` (stereo not shown), `COc1ccccc1NC(=O)CSc1nnc(CC(=O)Nc2ccccc2C)n1C` is higher in “hERG current change (%, negative = inhibition) at 1uM” value: 9.69% for the first, 11.7% for the second.

First: Cc1ccc(SCc2ccc(C(=O)Nc3ccccc3Br)cc2)cc1
Second: CC(=O)N1CCN(c2ccccc2NC(=O)c2ccc3ccccc3c2)CC1
The “hERG current change (%, negative = inhibition) at 1uM” value of the first is lower: -14.7% for the first, -4.62% for the second.

Compared with `CCOC(=O)C(NS(=O)(=O)c1ccc(Br)cc1)C(C)C` (stereo not shown), `CC(C)(C)C(=O)Oc1cc(N)n(S(=O)(=O)c2ccc(F)cc2)n1` is higher in “hERG current change (%, negative = inhibition) at 1uM” value: -9.42% for the first, 14.6% for the second.

Going from `CCN1CCN(S(=O)(=O)c2ccc(Cl)c(C(=O)Nc3cc(Cl)ccc3N3CCOCC3)c2)CC1` to `Cc1ccc(N2CCN(S(=O)(=O)c3ccc4oc(=O)ccc4c3)CC2)c(C)c1`, the “hERG current change (%, negative = inhibition) at 1uM” value rises from -0.742% to 20%.

Compared with `c1ccc(Cc2noc(CN3CCN(Cc4ccc5c(c4)OCO5)CC3)n2)cc1`, `CC(=O)n1cc([C@@H]2C=C(C(=O)N3CCN(Cc4ccccc4)CC3)O[C@H](OCc3ccc(CO)cc3)C2)c2ccccc21` is lower in “hERG current change (%, negative = inhibition) at 1uM” value: 7.44% for the first, -0.588% for the second.

First: CN(CCc1ccccn1)C(=O)c1cccnc1Oc1ccc(Cl)cc1
Second: Cc1ccccc1OCC(=O)NCC(=O)OCC(=O)c1ccc2ccccc2c1
The “hERG current change (%, negative = inhibition) at 1uM” value of the first is higher: 6.51% for the first, 0.168% for the second.

First: COc1ccc2c(CCN)c[nH]c2c1.Cl
Second: COc1ccc(OC)c(NC(=O)C(=O)NCCC2=CCCCC2)c1
The “hERG current change (%, negative = inhibition) at 1uM” value of the first is higher: 14.4% for the first, 9.87% for the second.

Compared with `O=C(NCCCN1CCOCC1)C(C(=O)NCCCN1CCOCC1)c1ncc(C(F)(F)F)cc1Cl`, `COc1cc(CNCCN2CCOCC2)ccc1OCc1c(Cl)cccc1Cl.Cl` is lower in “hERG current change (%, negative = inhibition) at 1uM” value: 18.1% for the first, -5.61% for the second.

Going from `C#CCOC(=O)CCC(=O)NCCc1ccccc1` to `CC(NC(=O)CCC(=O)NCc1ccc(F)cc1)c1ccccc1` (stereo not shown), the “hERG current change (%, negative = inhibition) at 1uM” value rises from 7.64% to 15.1%.

First: Cc1ccccc1OCC(O)CN1CCN(CCN2C(=O)c3cccc4cccc(c34)C2=O)CC1 (stereo not shown)
Second: COCCCNc1c2c3c(cccc3[nH]c1=O)C(=O)c1ccccc1-2
The “hERG current change (%, negative = inhibition) at 1uM” value of the first is lower: -17.3% for the first, 2.86% for the second.

Going from `CC(C)Cc1nnc(NC(=O)Cc2ccccc2[N+](=O)[O-])s1` to `CCC(=O)Nc1cccc(NC(=O)c2ccc(C)c([N+](=O)[O-])c2)c1`, the “hERG current change (%, negative = inhibition) at 1uM” value falls from 2.31% to -2.36%.

Going from `CCN(CC(=O)Nc1c(F)cccc1F)C(=O)CNC(=O)c1ccc(Br)o1` to `Cc1c(Br)c([N+](=O)[O-])nn1CC(=O)Nc1ccc(CC#N)cc1`, the “hERG current change (%, negative = inhibition) at 1uM” value falls from 17.2% to 13.6%.

Compared with `CC1CCCCN1S(=O)(=O)c1ccc(C(=O)N(CCCN(C)C)c2nc3cc4c(cc3s2)OCO4)cc1.Cl` (stereo not shown), `O=C(c1cccc(Cl)c1)C1CCCN(C(=O)c2ccc3c(c2)OCO3)C1` (stereo not shown) is higher in “hERG current change (%, negative = inhibition) at 1uM” value: -26% for the first, 3.55% for the second.

Going from `COc1ccc(-c2cc(-c3ccccc3)nc(SC(C)C(=O)O)c2C#N)cc1` (stereo not shown) to `COc1cc(/C=C(/C#N)c2nc3ccccc3[nH]2)ccc1OCc1ccc(C(=O)O)o1`, the “hERG current change (%, negative = inhibition) at 1uM” value falls from 11% to 9.9%.

Going from `O=C(Nc1ccc(OC(F)F)c(Cl)c1)c1ccccn1` to `CCOc1ccc(S(=O)(=O)N(CC)CC(=O)NCc2ccccn2)cc1C`, the “hERG current change (%, negative = inhibition) at 1uM” value falls from 16% to 9.07%.

First: Cc1cc(C)cc(NC(=O)Cn2c(=O)oc3cc(S(=O)(=O)N4CC(C)CC(C)C4)ccc32)c1 (stereo not shown)
Second: O=C(CN1C(=O)c2ccccc2C1=O)Nc1cc(C(=O)O)cc(C(=O)O)c1
The “hERG current change (%, negative = inhibition) at 1uM” value of the first is higher: 6.42% for the first, 5.36% for the second.

Going from `COc1ccccc1-n1cnnc1SCC(=O)Nc1nc(C)c(Cl)cc1Cl` to `COc1ccc(-n2nc(C(=O)NCC(=O)N3CCCC3)c3ccccc3c2=O)cc1Cl`, the “hERG current change (%, negative = inhibition) at 1uM” value rises from 8.65% to 16.7%.

Going from `CC(C)(C)c1ccccc1OCCN1CCCC1` to `O=C(c1ccc(F)cc1)c1ccc(N2CCCCC2)cc1`, the “hERG current change (%, negative = inhibition) at 1uM” value rises from -13.8% to 6.67%.

Compared with `N#CCCN(C(=O)COC(=O)C12CC3CC(CC(O)(C3)C1)C2)c1ccc(F)cc1`, `O=C(Nc1cccc(C(F)(F)F)c1)C12CC3CC(CC(C3)C1)C2` is lower in “hERG current change (%, negative = inhibition) at 1uM” value: 13.4% for the first, 8.26% for the second.

Compared with `CSCCC(NC(=O)c1ccco1)C(=O)OCC(=O)Nc1ncc(Cl)c(C)c1Cl` (stereo not shown), `O=C(c1ncc[nH]1)c1ccco1` is higher in “hERG current change (%, negative = inhibition) at 1uM” value: 1.17% for the first, 11.8% for the second.

Going from `Cc1cc(NC(=O)c2ccc(F)cc2)no1` to `COC(=O)c1ccc(NC(=O)CSc2nnc(-c3ccncc3)n2N)cc1`, the “hERG current change (%, negative = inhibition) at 1uM” value falls from 8.85% to 2.59%.

Going from `O=C(Nc1ccc(S(=O)(=O)Nc2cnc3ccccc3n2)cc1)c1ccc(Cl)c([N+](=O)[O-])c1` to `COc1ccc(NC(=O)C2CCCN2S(=O)(=O)c2cccc3cccnc23)c(OC)c1` (stereo not shown), the “hERG current change (%, negative = inhibition) at 1uM” value falls from 17.3% to 10.9%.

Compared with `COc1cc(C=O)ccc1OCc1c(C)noc1C`, `CCN(CC)S(=O)(=O)c1ccc(OC)c(NC(=O)/C=C/c2ccco2)c1` is lower in “hERG current change (%, negative = inhibition) at 1uM” value: 12.3% for the first, 3.57% for the second.

Going from `Cc1ccc(NS(=O)(=O)c2c(C)nc3sccn3c2=O)cc1C` to `COc1ccc(OC)c(NS(=O)(=O)c2ccc(N3CCCC3=O)cc2)c1`, the “hERG current change (%, negative = inhibition) at 1uM” value rises from -4.59% to 5.31%.

First: CC1CCCC(CC(=O)O)(CC(=O)O)C1 (stereo not shown)
Second: CC(CCc1ccccc1)NC(=O)C1CCCN(C(=O)c2cc3sccc3n2C)C1 (stereo not shown)
The “hERG current change (%, negative = inhibition) at 1uM” value of the first is higher: 14.1% for the first, 3.71% for the second.

Compared with `Cc1cc([N+](=O)[O-])ccc1NC(=O)CCC(=O)N1CCCCCC1`, `CCn1ncc([N+](=O)[O-])c1C(=O)N1CCCC1` is higher in “hERG current change (%, negative = inhibition) at 1uM” value: 1.82% for the first, 15.9% for the second.

Compared with `CCc1ccc(NCc2nc3ccccc3c(=O)[nH]2)cc1`, `O=c1c(Cl)c(NCCCO)cnn1-c1nc2ccccc2[nH]1` is lower in “hERG current change (%, negative = inhibition) at 1uM” value: 8.47% for the first, 0.238% for the second.

Compared with `CCc1ccc(O)c(N=Cc2ccccc2O)c1`, `O=c1cc(-c2cc3ccccc3o2)c2cc(O)ccc2o1` is higher in “hERG current change (%, negative = inhibition) at 1uM” value: 5.5% for the first, 15.2% for the second.

First: CSc1ccc(CCNC(=O)C2CCN(c3nnc(-n4cccc4)s3)CC2)cc1
Second: CCOc1ccc(S(=O)(=O)N2CCC(C(=O)NCc3cccnc3)CC2)cc1Cl
The “hERG current change (%, negative = inhibition) at 1uM” value of the first is higher: 8.21% for the first, -12.4% for the second.

First: O=C(CSc1c[nH]c2ccccc12)N1CCCc2ccccc21
Second: Cc1ccc(SCC(=O)OC(C)C(=O)N2CCc3ccccc32)cc1 (stereo not shown)
The “hERG current change (%, negative = inhibition) at 1uM” value of the first is higher: 8.44% for the first, 5.64% for the second.

First: CCc1c(C)sc(NC(=S)N2CC(C)OC(C)C2)c1C(=O)OC (stereo not shown)
Second: COC(=O)C1=C(C(=O)OC)C2C(C)=CC(C)=CN2C(C(=O)OC)=C1C(=O)OC (stereo not shown)
The “hERG current change (%, negative = inhibition) at 1uM” value of the first is higher: 9.46% for the first, -1.4% for the second.

Going from `CCCN(CCC)Cc1c(C(=O)N/N=C/CCc2ccccc2)nnn1-c1nonc1N` to `CCN(CC)C(=O)Oc1cc(COC)nc(-c2ccccc2)n1`, the “hERG current change (%, negative = inhibition) at 1uM” value rises from -3.67% to 6.59%.

Compared with `CC(C)c1ccc(N(C)C(=O)Cc2c(C(=O)O)n(C)c3ccccc23)cc1`, `COc1ccc(NC(=O)N2Cc3ccccc3CC2C(=O)NC(C)(C)C)cc1` (stereo not shown) is lower in “hERG current change (%, negative = inhibition) at 1uM” value: 12.7% for the first, 2.06% for the second.

Going from `NNc1ccc2nncn2n1` to `CCCn1nnc(NC(=O)c2ccc(Cl)cc2Cl)n1`, the “hERG current change (%, negative = inhibition) at 1uM” value falls from 11.5% to 11%.

First: CC1CCCC(NS(=O)(=O)c2cccc3nsnc23)C1C (stereo not shown)
Second: O=C(NCc1ccccn1)C1CCCN(S(=O)(=O)c2ccccc2)C1 (stereo not shown)
The “hERG current change (%, negative = inhibition) at 1uM” value of the first is higher: 15.8% for the first, 15.1% for the second.

First: CCOCCCn1c(=S)[nH]c2cc(C(=O)N3CCOCC3)ccc2c1=O
Second: CCOC(=O)c1ccc2c(c1)C(=O)N(C1CCCCC1)C2=O
The “hERG current change (%, negative = inhibition) at 1uM” value of the first is lower: -11.1% for the first, 9.59% for the second.

Compared with `CCN(CC)C(=O)CSc1nnc(-c2ccco2)n1Cc1ccco1`, `CCOC(CNC(=O)C(=O)NCC(c1ccco1)N1CCN(c2ccc(OC)cc2)CC1)OCC` (stereo not shown) is higher in “hERG current change (%, negative = inhibition) at 1uM” value: -3.83% for the first, 7.37% for the second.

First: CCCCCCCCCCCCCCCC(=O)OC/C=C(C)/C=C/C=C(C)/C=C/C1=C(C)CCCC1(C)C
Second: Cc1c2c(nc3c(C(=O)NC4CC4)cnn13)CCCC2
The “hERG current change (%, negative = inhibition) at 1uM” value of the first is higher: 10.2% for the first, 4.37% for the second.

Going from `N#C/C(=N\O)c1nc(-c2ccccc2)cs1` to `COc1cccc(N2CCN(C(=O)Nc3ccc4c(c3)NC(=O)CO4)CC2)c1`, the “hERG current change (%, negative = inhibition) at 1uM” value falls from 12.4% to -12%.

Going from `O=c1[nH][nH]c(C(F)(F)F)c1/C=N/N1CCOCC1` to `COc1ccc(C(N)=O)cc1NC(=O)CC(O)(C(F)(F)F)C(F)(F)F`, the “hERG current change (%, negative = inhibition) at 1uM” value falls from 18.2% to 15.2%.
